Results as given in PubChem BioAssay AID1645882 (National Center for Advancing Translational Sciences (NCATS), 2021).
Among all 16,000 compounds or so, about 120 (0.75%) were called active. Not shown: some 4% with an inconclusive outcome. Calls come from the whole dose curve; as a rule, active = well fitted inhibition curve with a large enough effect; inconclusive = small, poorly fitted or top-dose-only effect; inactive = no such curve, though single readings can be large or run the other way. The list shows a part of the results.

biological target: Rap guanine nucleotide exchange factor 3 (Homo sapiens) (UniProt O95398); assay: Validation qHTS for antagonist of cAMP-regulated guanine nucleotide exchange factor 3 (EPAC1); conditions: EPAC1 Rap1B-BODIPY-GDP exchange, fluorescence; series mostly up to 150 µM; activity change, negative = inhibition: at the top concentration;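 note: plate controls were DMSO for no effect and ATA control for full effect; nearly all actives have a fitted effect of over 75% in size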
Method in brief: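 Nucleotide exchange followed as fluorescence loss when BODIPY-GDP leaves Rap1B (480 nm excitation, 540 nm emission), read at 5 min intervals over 30 min. Reaction: 100 nM EPAC1, 250 nM RAP1B-BODIPY-GDP, 50 uM GDP; ATA and DMSO define normalization.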

Chain of UniProt O95398 (O95398 whole entry, looked up): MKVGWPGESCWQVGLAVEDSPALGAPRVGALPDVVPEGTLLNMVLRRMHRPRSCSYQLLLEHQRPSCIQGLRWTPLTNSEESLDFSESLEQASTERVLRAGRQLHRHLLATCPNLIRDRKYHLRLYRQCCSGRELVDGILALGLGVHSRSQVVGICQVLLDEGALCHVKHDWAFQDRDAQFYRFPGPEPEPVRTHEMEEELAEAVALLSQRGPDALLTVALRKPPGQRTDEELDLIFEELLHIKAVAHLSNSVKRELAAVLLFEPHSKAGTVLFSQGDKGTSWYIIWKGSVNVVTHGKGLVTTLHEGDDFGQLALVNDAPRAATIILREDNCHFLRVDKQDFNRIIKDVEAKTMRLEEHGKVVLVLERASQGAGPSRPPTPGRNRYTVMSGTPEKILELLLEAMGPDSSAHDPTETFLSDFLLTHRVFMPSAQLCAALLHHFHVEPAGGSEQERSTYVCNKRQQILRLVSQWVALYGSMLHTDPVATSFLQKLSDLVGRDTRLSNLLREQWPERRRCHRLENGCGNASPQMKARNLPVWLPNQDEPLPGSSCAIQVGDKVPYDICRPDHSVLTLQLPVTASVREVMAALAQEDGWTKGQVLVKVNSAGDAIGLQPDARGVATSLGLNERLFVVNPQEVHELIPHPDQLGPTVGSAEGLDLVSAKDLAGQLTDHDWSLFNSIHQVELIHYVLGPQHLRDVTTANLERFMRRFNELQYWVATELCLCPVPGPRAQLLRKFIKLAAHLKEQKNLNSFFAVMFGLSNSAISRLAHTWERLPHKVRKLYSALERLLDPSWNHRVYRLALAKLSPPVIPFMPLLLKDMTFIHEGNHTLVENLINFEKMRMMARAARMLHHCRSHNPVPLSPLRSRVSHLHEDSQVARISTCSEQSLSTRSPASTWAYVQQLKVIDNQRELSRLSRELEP

Structure (SMILES) | activity change, negative = inhibition
O=C(NCN1CCOCC1)c1cnccn1 | inactive: 6.11%
COc1ncc2nc(-c3cc(F)cc(F)c3)c(=O)n(CCC#N)c2n1 | inactive: -1.83%
COc1cc(-c2cc(=O)c3c(O)c(OC)c(OC)c(OC)c3o2)cc(OC)c1OC | inactive: 1.5%
Cc1noc(C)c1C(=O)N1CCC2(CCN(Cc3ccccc3)CC2)CC1 | inactive: 15.4%
Cc1cc([C@](C)(N)C(=O)O)ccc1P(=O)(O)O | inactive: 7.42%
Cc1cnc(-n2ncc(C(=O)NCc3cccnc3)c2C)nc1-c1ccc(F)cc1 | inactive: 12.1%
CN1CCN(c2ncc3nc(-c4ccccc4)c(=O)n(C)c3n2)CC1 | inactive: 3.65%
COc1ccc(-c2cn(Cc3ccc4ccccc4c3)nn2)cc1 | inactive: 11%
Cc1ccsc1C(=O)N(Cc1cc2ccc(F)cc2nc1N1CCC(O)CC1)CC1CCCO1 (centres undefined) | inactive: 18.1%
Cc1nc2cnc(Nc3ccccc3)nc2n(C2CC2)c1=O | inactive: 9.17%
Cc1c(C(=O)N2CCOc3ccccc3C2)sc2ncnc(NCCCN3CCOCC3)c12 | inactive: 13.8%
CCC(C)C(=O)O[C@H]1C[C@@H](C)C=C2C=C[C@H](C)[C@H](CC[C@@H]3C[C@@H](O)CC(=O)O3)C21 (some centres undefined) | inactive: -10.6%
CC(=O)N1CCC[C@H]1C(=O)NCC1Cc2cc(C)cc(-c3ccc(Cl)cc3)c2O1 (some centres undefined) | inactive: 2.14%
COc1ncc2nc(CCc3ccccc3)c(=O)n(C)c2n1 | inactive: 5.17%
COc1cccc(-c2cc3c(c(OC)c2)OCCN(S(=O)(=O)c2ccccc2OC(F)(F)F)C3)n1 | inactive: -13%
COC[C@H](c1ccc(C(F)(F)F)cc1)N1CCN(C2(C)CCN(C(=O)c3c(C)ncnc3C)CC2)C[C@H]1C | inactive: 35.3%
O=S(=O)(c1ccccc1)N1CCC2(CCCN(c3cccc(-c4ccccc4)c3)C2)CC1 | inactive: 4.29%
C[N+]1(CC(=O)c2cccc([N+](=O)[O-])c2)CCOCC1 | inactive: 22.3%
CCOC(=O)c1ccc(-c2c(-c3cc(OC)c(OC)c(OC)c3)noc2C)cc1F | inactive: -22%
CN1CCCC1CCOC(C)(c1ccccc1)c1ccc(Cl)cc1 (centres undefined) | inactive: 21.5% [at 75.8 µM]
CNCCCCCCCCSc1nc(C(C)C)ccc1C(=O)c1cccs1 | inactive: 2%
OCc1cc2c(cn1)[nH]c1ccccc12 | inactive: 7.08%
CC(=O)N[C@@H](CC(C)C)C(=O)O | inactive: -7.18%
Cc1nccn1CC1CCC2C(C1=O)c1ccccc1N2C (centres undefined) | inactive: 23.6%
CC[C@]1(O)C[C@@H]2CN(CCc3c([nH]c4ccccc34)[C@](C(=O)OC)(c3cc4c(cc3OC)N(C)[C@H]3[C@](O)(C(=O)OC)[C@@H](C(=O)OC)[C@@]5(CC)C=CCN6CC[C@@]43[C@@H]65)C2)C1 | inactive: 2.39%

Structure (SMILES) | activity change, negative = inhibition
CO/N=C(/C(=O)N[C@H]1C(=O)N2C(C(=O)O)=C(COC(C)=O)CSC12)c1csc(N)n1 (some centres undefined) | inactive: -10.5%
Nc1nc(F)nc2c1ncn2[C@@H]1O[C@H](CO)[C@@H](O)[C@@H]1O | inactive
Cc1c(OCC(F)(F)F)ccnc1CS(=O)c1nc2ccccc2[nH]1 (centres undefined) | inactive
COc1ccc(/C=C/c2cc(O)cc(O[C@H]3OC(CO)C(O)C(O)C3O)c2)cc1 (some centres undefined) | inactive: 9.7%
O=C(Nc1ccccc1)N1CC2(CCN(C(=O)c3cnccn3)CC2)C1 | inactive: 22.9%
CC[C@H]1OC(=O)[C@H](C)[C@@H](O[C@H]2C[C@@](C)(OC)[C@@H](O)[C@H](C)O2)[C@H](C)[C@@H](O[C@@H]2O[C@H](C)C[C@H](N(C)C)[C@H]2O)[C@](C)(O)C[C@@H](C)/C(=N\OCOCCOC)[C@H](C)[C@@H](O)[C@]1(C)O | inactive: 10.4% [at 75.8 µM]
Cc1oc(-c2ccccc2NC(=O)c2cccnc2)nc1CNC(=O)C1CCCCCN1C (centres undefined) | inactive: 16.5%
O=C1NC(=O)[C@@]2(CCOc3ccc(F)cc32)N1 | inactive: 5.41%
C=C(Br)COC(c1ccco1)[C@H](Cc1ccccc1)NC(=O)OC(C)(C)C (some centres undefined) | inactive: -24.5%
COc1ccc(C(=O)NCC2Cc3cccc(-c4ccc(S(C)(=O)=O)cc4)c3O2)c(OC)n1 (centres undefined) | inactive: 20.6%
O=c1[nH]cnc2n[nH]nc12 | inactive: -19.4%
CNc1ccnc(-c2cccc(NS(C)(=O)=O)c2)n1 | inactive: 3.58%
CCCc1ccc(C(=O)O)cc1 | inactive: -14.2%
C=C1C[C@H](OC(=O)C(C)(O)CCl)C2C(=C)C(=O)O[C@@H]2C2C1C[C@H](O)[C@]2(O)CCl (some centres undefined) | inactive: 23.3%
COc1ccc(CN2CCCC(n3cc(C(=O)N4CCCCC4)nn3)C2)c(OC)c1 (centres undefined) | inactive: 6.36%
CSc1nc(N)c2ncn([C@@H]3O[C@H](COP(=O)(O)OP(=O)(O)OP(=O)(O)O)[C@@H](O)[C@H]3O)c2n1 | inactive: -4.47% [at 75.8 µM]
C=CCN1CCc2cc(O)c(O)cc2[C@H](c2ccccc2)C1 | inactive: 4.56%
COc1c2ccoc2nc2c(OC)c(OCC(O)C(C)(C)O)ccc12 (centres undefined) | inactive: 15.8%
COc1cccc(Cn2c(=O)c(CCc3ccccc3)nc3cnc(N4CCNCC4)nc32)c1 | inactive: -0.227%
COc1ccc(CNc2ncncc2-c2ccc3c(c2)OCO3)c(OC)c1 | inactive: -28.6%
CN1CCN(c2ncnc3ccc(-c4cccc(NS(C)(=O)=O)c4)cc23)CC1 | inactive: 5.83%
Cc1cc(C)n(-c2ccc(C(=O)N3CCc4c(cnc(C)c4CNC(=O)c4ccccc4F)C3)cc2)n1 | inactive: 14.7%
CCOC(=O)OC(C)OC(=O)[C@@H]1N2C(=O)[C@@H](NC(=O)[C@H](N)c3ccccc3)[C@H]2SC1(C)C (some centres undefined) | inactive: 19.9% [at 75.8 µM]
COc1ccc(C2OCC3(COC(C)=O)C(C)C=C(C)C2C3C)cc1 (centres undefined) | inactive: -3.37%
